Laboratory results from US20140120091A1 (University of Washington, published 2014).

How the values were obtained:
[1] = biological target: T1, human CD40 ligand (CD40L, CD154) expressed on human Jurkat cells (human, UniProt P29965 1-261); assay: flow cytometry, COS supernatants on Jurkat cells, AF647 goat anti-human IgG detection
T1 construct: whole, on cells; also called CD40L on Jurkat cells; CD154 (CD40L) expressed on the surface of Jurkat cells
T1 sequence (looked up): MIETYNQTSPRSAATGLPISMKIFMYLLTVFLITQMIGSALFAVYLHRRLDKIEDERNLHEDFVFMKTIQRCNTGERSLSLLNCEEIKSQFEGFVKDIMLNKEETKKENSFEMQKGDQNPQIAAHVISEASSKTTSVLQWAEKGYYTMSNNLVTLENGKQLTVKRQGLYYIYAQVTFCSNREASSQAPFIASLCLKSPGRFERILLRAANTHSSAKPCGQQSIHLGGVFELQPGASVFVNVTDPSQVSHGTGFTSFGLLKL

[2] = biological target: T2, recombinant human CD40L (Peprotech, Catalog #310-02) (human, UniProt P29965 113-261); assay: CD40L antigen binding ELISA normalised to IgG sandwich ELISA, COS supernatants
T2 construct: Bought reagent; also called rCD40L; immobilized CD40L
T2 sequence (looked up): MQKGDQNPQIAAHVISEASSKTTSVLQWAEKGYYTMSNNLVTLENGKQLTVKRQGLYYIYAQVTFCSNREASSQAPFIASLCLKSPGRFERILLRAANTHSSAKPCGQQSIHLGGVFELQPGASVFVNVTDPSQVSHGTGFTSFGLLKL
Method: (§1) Coated plates were washed twice in wash buffer: (PBS/0.05% Tween-20/0.01% Kathon), and blocked overnight at 4° C. in 200 ul/well PBS/2.5% BSA. Blocked plates were washed three times in wash buffer, and serial dilutions of each culture supernatant in (D-PBS, 0.2% BSA) added to successive wells in each plate: (20×, 40×, 80×, and 160× of each supernatant). Supernatant dilutions were incubated overnight at 4° C. Plates were washed three times in wash buffer, then incubated with HRP (horseradish peroxidase) conjugated goat anti-human IgG (Fc specific) (Catalog #109-036-008, Jackson Immunoresearch, West Grove, Pa.) at a 1:7,500 dilution in PBS for 1-2 hours at room temperature. Plates were washed 4-5 times in wash buffer, then 80 ul/well TMB Sureblue peroxidase substrate was added (Catalog #52-00-02, KPL Laboratories, Gaithersburg, Md.). Color was allowed to develop for 5-15 minutes, and reactions stopped by addition of 80 ul/well 1 N HCL. Plates were read using a Biotek SYNERGY® 2 (Biotek Instruments, Winooski, Vt.) plate reader at […], and data analyzed with Gen5 v2 software.

[3] = biological target: T2, recombinant human CD40L (Peprotech, …); assay: CD40L antigen binding ELISA, COS supernatants (FIG. 29)
Method: as §1

B1: CD40 EC-Ig fusion protein, mutant E64S (Fc fusion)
chain: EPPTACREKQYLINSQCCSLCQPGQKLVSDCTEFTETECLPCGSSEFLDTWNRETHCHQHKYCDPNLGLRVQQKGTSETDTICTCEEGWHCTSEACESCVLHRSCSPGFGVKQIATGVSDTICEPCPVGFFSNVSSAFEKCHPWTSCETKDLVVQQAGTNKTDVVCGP
notes: COS7 culture supernatant; not shown: human IgG Fc tail
- binding result [1]: binds

B2: CD40 EC-Ig fusion protein, mutant E64Y (Fc fusion)
chain: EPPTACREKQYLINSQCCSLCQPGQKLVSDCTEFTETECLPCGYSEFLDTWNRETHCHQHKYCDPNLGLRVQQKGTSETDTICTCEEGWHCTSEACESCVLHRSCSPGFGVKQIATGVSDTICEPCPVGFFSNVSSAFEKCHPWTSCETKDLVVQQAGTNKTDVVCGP
notes: as for B1
- binding result [2]: binds
- binding result [1]: binds

B3: CD40 EC-Ig fusion protein, mutant E64Y E66T (Fc fusion)
chain: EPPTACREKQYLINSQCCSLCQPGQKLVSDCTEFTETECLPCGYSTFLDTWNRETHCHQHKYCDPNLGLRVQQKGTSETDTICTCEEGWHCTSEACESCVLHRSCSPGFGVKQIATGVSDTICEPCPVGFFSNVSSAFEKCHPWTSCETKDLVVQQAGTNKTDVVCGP
notes: COS7 culture supernatant; also called E64Y E66T double substitution mutant; not shown: human IgG Fc tail
- binding result [2]: binds

B4: CD40 EC-Ig fusion protein, mutant E114N E117Q (Fc fusion)
chain: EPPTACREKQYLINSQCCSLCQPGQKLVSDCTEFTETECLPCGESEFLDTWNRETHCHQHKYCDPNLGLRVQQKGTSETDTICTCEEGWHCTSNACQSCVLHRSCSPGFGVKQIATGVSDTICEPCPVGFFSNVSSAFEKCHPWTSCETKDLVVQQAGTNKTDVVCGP
notes: COS7 culture supernatant; also called E114N E117Q double substitution mutant; not shown: human IgG Fc tail
- binding result [3]: binds

B5: CD40 EC-Ig fusion protein, mutant T112S (Fc fusion)
chain: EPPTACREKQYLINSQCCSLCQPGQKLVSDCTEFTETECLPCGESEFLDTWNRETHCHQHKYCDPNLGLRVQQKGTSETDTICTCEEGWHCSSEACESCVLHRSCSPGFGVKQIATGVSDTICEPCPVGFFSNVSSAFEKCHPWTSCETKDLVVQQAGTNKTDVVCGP
notes: as for B1
- binding result [2]: binds

B6: CD40 EC-Ig fusion protein, mutant T112Y (Fc fusion)
chain: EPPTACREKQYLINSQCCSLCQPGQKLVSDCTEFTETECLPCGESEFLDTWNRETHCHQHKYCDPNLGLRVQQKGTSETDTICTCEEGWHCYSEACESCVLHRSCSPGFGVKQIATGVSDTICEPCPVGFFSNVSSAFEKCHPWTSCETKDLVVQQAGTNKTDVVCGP
notes: as for B1
- binding result [2]: binds
